Experimental data taken from paper PMC13083723 (Patterns, 2026).
The whole screen tested about 5,400 compounds, of which about 190 (3.5%) showed an effect of 50% or more. The list shows a part of the results.

The molecules below were run on Vero-E6 (assay: primary screen, phospholipidosis by LipidTOX staining; higher = more effect of the substance). Conditions: 10 µM.
Experimental: To measure drug-induced PLD in Vero-E6 cells, we used the HCS LipidTOX Red Phospholipidosis Detection Reagent (Invitrogen, #H34351), which is non-toxic to cell growth and remains well retained after aldehyde fixation. In this setup, compounds (at 10 μM concentration) and controls (amiodarone: 10 μM concentration; DMSO: 0.1 v/v %) were added to clear-bottom, 384-well plates (PhenoPlate 384-well, black, optically clear flat bottom, tissue-culture treated, Revvity #6057302) using the Echo Liquid Handler (Labcyte).

| Compound | result_ITMP |
| --- | --- |
| C[C@]12CC[C@H](O)CC1=CCC1C2CC[C@]2(C)C(=O)CC[C@@H]12 (stereo partly shown) | 13.7% |
| CC1(C)OC(=O)NC1=O | -2.7% |
| On1ncc(C2CCNCC2)c1-c1cccc(-c2ccccc2)c1 | -3.65% |
| C[C@H](Nc1ncnc2[nH]cnc12)c1nc2ccc(F)cc2c(=O)n1-c1ccccc1 | -2.32% |
| N[C@@H](C(=O)O)c1ccc(C(=O)O)c(C(=O)O)c1 | -2.09% |
| N#Cc1c(N)nc(SCc2csc(-c3ccc(Cl)cc3)n2)c(C#N)c1-c1ccc(OCCO)cc1 | 0.38% |
| CCCCNNC(=O)c1ccc(Br)cc1 | -9.9% |
| Fc1ccc(-c2nc3n(c2-c2ccncc2)CCS3)cc1 | -4.5% |
| CCC[C@H](N[C@@H](C)C(=O)N1[C@H](C(=O)O)C[C@@H]2CCCC[C@@H]21)C(=O)OCC | -8.8% |
| CCCC(=O)O[C@]1(C(=O)COC(C)=O)CC[C@H]2[C@@H]3C[C@H](F)C4=CC(=O)C=C[C@]4(C)[C@@]3(F)[C@@H](O)C[C@@]21C | -0.93% |
| Cn1ncc(Cl)c1-c1cc(C(=O)N[C@H](CN)Cc2ccc(F)c(F)c2)oc1Cl | 82.6% |
| COc1ncc2cc(C(=O)Nc3cc(C(=O)NCc4cccc(Cl)c4)ccc3Cl)c(=O)[nH]c2n1 | -7.54% |
| Nc1ccc(C(=O)NCC(=O)O)cc1 | -10.8% |
| COc1ccc(NS(=O)(=O)c2ccc(N)cc2)nn1 | -1.34% |
| O=C(O)c1ccc2c(c1)C(=O)N(c1cccc(Oc3ccc([N+](=O)[O-])cc3)c1)C2=O | 0.2% |
| O=S(=O)([O-])c1cc(I)c(O)c2ncccc12 | -9.09% |
| CCCCCCCC/C=C/C(=O)O | -3.69% |
| COc1cc2c(Oc3ccc4[nH]c(C)cc4c3F)ccnc2cc1OCC1(N)CC1 | 35.5% |
| CC[C@H](/C=C/[C@@H](C)[C@H]1CC[C@H]2[C@@H]3CC=C4C[C@@H](O)CC[C@]4(C)[C@H]3CC[C@]12C)C(C)C | -2.7% |
| CC(C)(C)c1[nH]cnc1/C=c1\[nH]c(=O)/c(=C/c2ccccc2)[nH]c1=O | -3.64% |
| CC(C)(C)CC(=O)Nc1c(F)cc(C(=O)/N=c2\sccn2COP(=O)(O)O)cc1F | -1.22% |
| Cn1c(=O)cc(N2CCC[C@@H](N)C2)n(Cc2cc(F)ccc2C#N)c1=O | -10.5% |

| Compound | result_ITMP |
| --- | --- |
| O=c1c2c(c1=O)N(CCP(=O)(O)O)CCCN2 | -5.15% |
| C/N=C(/NS(=O)(=O)c1ccc(Cl)cc1)N1CC(c2ccccc2)C(c2ccc(Cl)cc2)=N1 (racemic) | -1.59% |
| Cc1ccccc1NC(=O)Nc1ccc(CC(=O)N(C)[C@@H](CC(C)C)C(=O)NCC[C@H](NC(=O)[C@@H]2CCCN2S(=O)(=O)c2cc(Cl)cc(Cl)c2)C(=O)O)cc1 | -1.2% |
| CCCOc1ccc2[nH]cc(C3=CCNCC3)c2n1 | 4.69% |
| COc1ccc(Cc2nccc3cc(OC)c(OC)cc23)cc1OC | -4.22% |
| C[C@]12C=CC(=O)C=C1CCC1C2[C@@H](O)C[C@@]2(C)C1CC[C@]2(O)C(=O)COC(=O)CCC(=O)O (stereo partly shown) | -5.57% |
| CSc1nc(NC2CCCC2)c([N+](=O)[O-])c(NC2CCCC2)n1 | -1.26% |
| CCC(CC)Nc1nc(C)c(-c2ccc(OC(F)(F)F)cc2OC)nc1OC | -1.16% |
| CCOC(=O)c1ccc(OC(=O)CCCCCNC(=N)N)cc1 | -13.9% |
| CC(C)(C)Cn1c(N)nc2ccc(-c3[nH]c(C(C)(C)C)nc3-c3ccc(F)cc3)nc21 | 36.4% |
| CCCN[C@H]1CCc2nc(N)sc2C1 | -2.93% |
| Cc1c(C(=O)Nc2ccc(N3C[C@@H](C)O[C@@H](C)C3)nc2)cccc1-c1ccc(OC(F)(F)F)cc1 | -6.29% |
| O=C(NCc1ccccc1)OCCO | 8.77% |
| O=C(NC1CCN(CCCCC2(C(=O)NCC(F)(F)F)c3ccccc3-c3ccccc32)CC1)c1ccccc1-c1ccc(C(F)(F)F)cc1 | 62.5% |
| COc1ccc(C(=O)CC2(O)C(=O)Nc3c(Cl)ccc(Cl)c32)cc1 (stereo not shown) | -1.47% |
| CNC(=O)c1cc2c(cn1)[nH]c1ccccc12 | -1.63% |
| Cc1cc(=O)oc2cc(O)ccc12 | -3.44% |
| CCCCNc1ncc(-c2ccc(CN3CCOCC3)cn2)c(N[C@H]2CC[C@H](O)CC2)n1 | -2.9% |
| O=C([O-])C1[O][Sb]2[O]C(=O)C([O]2)C(C(=O)[O-])[O][Sb]2[O]C(=O)C1[O]2 (stereo not shown) | -8.7% |
| C/C=C1/[C@H](O[C@@H]2O[C@H](CO)[C@@H](O)[C@H](O)[C@H]2O)OC=C(C(=O)OC)[C@H]1CC(=O)OCCc1ccc(O)c(O)c1 | -1.62% |
| Cc1nc2ccccc2n1Cc1ccc(Cl)cc1 | -2.71% |
